Over roughly 33,000 sequences, “E-score (-0.5 to 0.5)” has its median near -0.012; the highest 2% begin near 0.27. This is one part of the list.
Each sequence was assayed against T1, Vhr1 (UniProt P40522) (assay: PBM E-score (8-mer binding enrichment) (E-score (-0.5 to 0.5)); higher = stronger / more preferred TF binding; most listed sequences are background and not binding sites). Details: protein concentration: 200 nM; construct: GST-full length.
T1 sequence: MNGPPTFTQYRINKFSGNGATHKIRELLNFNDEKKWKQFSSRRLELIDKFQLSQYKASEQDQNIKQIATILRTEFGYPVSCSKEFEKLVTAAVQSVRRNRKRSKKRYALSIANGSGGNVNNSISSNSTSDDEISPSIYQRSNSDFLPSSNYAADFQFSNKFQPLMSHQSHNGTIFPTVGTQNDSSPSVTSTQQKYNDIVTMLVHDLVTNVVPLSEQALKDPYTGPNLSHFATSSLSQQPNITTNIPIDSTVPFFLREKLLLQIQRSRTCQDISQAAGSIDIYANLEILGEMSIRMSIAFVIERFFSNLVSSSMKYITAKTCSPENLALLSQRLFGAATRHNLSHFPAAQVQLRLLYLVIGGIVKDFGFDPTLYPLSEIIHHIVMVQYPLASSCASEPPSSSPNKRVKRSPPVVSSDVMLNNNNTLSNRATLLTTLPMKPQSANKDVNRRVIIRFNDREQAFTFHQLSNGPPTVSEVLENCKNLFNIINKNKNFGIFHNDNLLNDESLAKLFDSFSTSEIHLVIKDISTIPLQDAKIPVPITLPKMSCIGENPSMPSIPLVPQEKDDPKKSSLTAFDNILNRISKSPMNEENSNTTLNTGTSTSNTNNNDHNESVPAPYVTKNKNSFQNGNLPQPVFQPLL
Procedure, shortened: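 Masliner-normalised scans of fluorescent anti-GST signal were the basis for scoring. That signal came from GST-tagged yeast transcription factors applied at about 100-200 nM to double-stranded universal all-10-mer Agilent arrays on fresh or once-stripped slides. Each ungapped eight-base word, pooled with its reverse complement, received an E-score from the Universal PBM Analysis Suite.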

Sequence	PBM E-score
AGGCCGTA	0.00746
AGCGGTGA	0.087
ACTAAGAG	-0.104
AGTAATAA	-0.00225
GTACTGCA	-0.00922
ACTGCTCT	-0.0446
GTGTCAGA	0.115
GACCAATC	-0.0894
TCCCTGCA	0.0302
GACGTGCC	-0.0792
AGGGGGTC	-0.311
ATGGCCTA	-0.222
ATTAACGG	0.00172
GTTGAGAA	-0.0514
CTACATCC	-0.157
CATAAGTC	0.056
CAGTACAC	0.122
AATAGTGC	-0.151
GGACGTCC	-0.12
CCCCAACC	0.192
CCCGGGAG	-0.0252
GAGGGCAA	0.0252
TACTGGCA	-0.138
CACCTAGA	-0.0265
TACTCGGA	0.126

Sequence	PBM E-score
AACCTACA	0.0211
AGGAACAC	-0.0881
ATGCGACG	0.0163
AGTCATTC	0.384
CTTACGAA	-0.115
CTATGCAG	0.0426
AAAATTGT	0.0635
AAGAGGAT	-0.0743
ACAAGATC	-0.0738
CCTGCTAA	-0.344
GCGCACCA	0.0304
AGCCGTAA	-0.0669
TCTAAACA	-0.254
GAGCAGCC	0.0642
GTATGTCA	0.117
AGGTAGTA	0.0487
CAGCCCGA	0.0547
ACGCAGCG	-0.0796
ACTCTTCC	-0.054
AACACTGG	0.103
CGATGGAA	-0.134
ACAGCCAG	0.209
ATTCATCA	0.0557
GAAGACCA	0.0605
ATAAGAGC	-0.0285

Sequence	PBM E-score
GAGTAGAA	-0.217
CGGAAGGC	-0.276
ACGCGGCC	-0.0291
ATAGAAGC	-0.0736
CGTAGAAC	-0.233
AACTCACC	0.224
ACAATCTC	0.0785
GAAAAATC	-0.0686
GACGTTTA	-0.11
CTGTCTAC	0.0767
ACTGGCCG	-0.269
AGGATGTA	0.159
GCAACGGA	0.0324
GTTTGAGA	-0.045
CAGTACCG	0.0537
TAAGCAAA	-0.242
CTTCTCCA	-0.167
CATATCGG	0.0424
AGTTCCCA	0.112
ACAGGTGA	0.176
AGGGTCCG	-0.18
CAGGACGC	-0.00404
TGTGTCAA	-0.0575
CAAATATA	0.0129
CGCGATGC	-0.241

Sequence	PBM E-score
GTCCTGGA	-0.321
AAAATCGG	-0.154
ACCTGTAT	0.0164
CCGCGTTC	0.0503
GACGATGA	0.177
CAGGGGGC	-0.14
AGCGGTAG	-0.0235
GCCCGCGA	0.139
CCATTTAA	-0.15
ATCCTTGG	0.0934
AGAAAAAA	-0.255
CACTCAGC	0.044
GCACCGAA	0.067
AATTCGAG	-0.0462
CAGGTCGA	0.132
ACGAAACC	0.164
ACTTCTCG	-0.184
AACTCGTC	0.0338
AAGTTGAG	-0.0223
GGATTCGA	-0.0664
AAGACTGT	-0.154
GGGACCGA	0.00187
GGTATTAC	0.139
CGTACTGC	0.0223
AATACCCA	0.0561

Sequence	PBM E-score
AAACAAGG	-0.191
GTAAGACA	-0.102
TATTTAAA	0.0675
AATTGCAC	0.128
AGTTCCAA	0.00985
AGGGGCAA	-0.21
AAGTGATG	0.0794
AGTGTTGA	-0.0299
CATTGGGG	-0.117
CAGGGTTC	-0.0621
ATCCATTC	-0.0383
AAAGCGAA	0.00124
AGTCTAGG	-0.134
CTAGCGTA	-0.231
AGACTAGC	-0.204
AAGTTGCT	-0.197
GTACCTAC	-0.00398
ACCTGTTA	-0.149
CTCACCGA	0.183
ACTTTTGC	-0.115
GGACACTA	-0.0253
ACACCCAA	0.197
AGTATCGA	0.147
AGGCATTG	-0.0373
CGACAGCG	-0.0743

Sequence	PBM E-score
TACGAATA	0.00744
ACAGGACA	0.129
CGCACTGA	0.0104
GCTAAGGA	-0.323
ACCCGCCG	0.197
AACTTCTG	-0.128
CCGCGTAC	-0.0241
ACCGACGC	-0.0561
CCAAGGGA	-0.197
CACGGCGA	0.158
CCTTCACA	-0.163
CTGACGGA	-0.176
ACACCAAG	0.0521
AATCGAGC	0.0319
GGTGTTCA	-0.0437
AGCAGCAT	-0.0558
CGAGCTGA	0.173
AGGTGACC	0.0821
ACTACTCC	0.206
GATGTATA	0.242
TCCTGGAA	-0.241
CCCACACC	0.12
CTAGTAAA	0.0708
ACAGGCGA	-0.0375
CGACTGCC	0.0648

Sequence	PBM E-score
ATTAAACG	-0.0977
ACAGCTCG	-0.0608
GACCTTCA	-0.111
AAGGACGT	-0.109
TATGGGGA	0.123
ACATGCCG	-0.0324
TAGCGCTA	-0.289
ATCGGTAC	0.102
ATCATAGA	0.222
CTATCGTC	-0.066
CTGGCTTC	-0.149
ACGAAAAC	-0.00389
AAAGTCGT	-0.0793
AAGCGGCT	-0.0228
ATCCCAAC	0.0332
CAAAACTG	-0.214
CCTTTGAC	-0.0472
CTCTTGGC	-0.276
CGCGTCAC	-0.0391
ATTTCAGG	0.0643
GCCATTGA	0.067
CCAACTTA	0.0119
GAAGCTGC	-0.0702
ATGTTGGC	-0.00473
AAGTGACC	-0.00246

Sequence	PBM E-score
CGAAGGCA	-0.185
AGAATGCG	-0.0687
AGCAGCCG	0.079
TCAGCCAA	0.0832
ATCTCGCA	-0.0448
AAGACTAA	0.116
ATGTCACA	0.131
TGATGGAA	0.0625
AATGTGAG	-0.0416
GTTTAAAA	-0.282
CGAAGACA	0.0682
AGGCACTG	-0.0805
CCTGCAAG	-0.245
TGACGGAA	-0.108
AGAGCCCT	-0.165
AACGCGCT	0.0547
CCACTGGC	-0.0105
GCAAATTA	-0.0987
CGGCGAGC	0.181
GCGATAAA	-0.00825
ACTGGGAG	-0.0384
AGCGGGGG	-0.0655
CAGGCGAA	-0.0345
AATAGTAA	0.0654
AAGTTGCC	-0.0563

Sequence	PBM E-score
ATGGCCCG	-0.0188
AAGGCTCA	-0.0408
TACTCTAA	-0.0831
CATTCGTA	-0.0463
AGGGGTCA	0.168
ACATCATG	0.211
GCTGACAC	0.174
CGCTTCAA	-0.169
CCTTTCGA	-0.112
GCGCTTTA	-0.241
AGTTCTTC	0.0538
ACTACACG	0.221
ATCTTTTG	-0.145
AGTTACTA	0.121
CGATCAAG	-0.206
GACTAGGA	0.135
CTGGCCTA	-0.166
GAGCAACA	-0.165
CACGGCTA	-0.116
